# Laboratory results as given in patent US20090018134A1, “Compounds - 945” (AstraZeneca AB, priority 2007, published 2009).
# Not every entry of the source has a single result; some have several. This list holds those alone. There may be further records. Values that stand side by side appear to be repeats (runs, samples, wells or individuals); a mean can stand among them.
# Target: T1, mTOR (Homo sapiens, UniProt P42345)
# T1 construct: FLAG; made in house
# Assay: In Vitro mTOR Kinase Assay (AlphaScreen), Test (a)(i)
# Format: biochemical
# Conditions: read-out: IC50 versus mTOR kinase
# Description: (a)(i) In Vitro mTOR Kinase Assay
# The assay used AlphaScreen technology (Gray et al., Analytical Biochemistry, 2003, 313: 234-245) to determine the ability of test compounds to inhibit phosphorylation by recombinant mTOR.
# A C-terminal truncation of mTOR encompassing amino acid residues 1362 to 2549 of mTOR (EMBL Accession No. L34075) was stably expressed as a FLAG-tagged fusion in HEK293 cells as described by Vilella-Bach et al., Journal of Biochemistry, 1999, 274, 4266-4272. […]
# Each reaction was stopped by the addition of 10 μl of a mixture of EDTA (50 mM), bovine serum albumin (BSA; 0.5 mg/mL) and Tris-HCl pH 7.4 buffer (50 mM) containing p70 S6 Kinase (T389) 1A5 Monoclonal Antibody (Cell Signalling Technology, Catalogue No. 9206B) and AlphaScreen Streptavidin donor and Protein A acceptor beads (200 ng; Perkin Elmer, Catalogue No. 6760002B and 6760137R respectively) were added and the assay plates were left for about 20 hours at room temperature in the dark. The resultant signals arising from laser light excitation at 680 nm were read using a Packard Envision instrument.
# Phosphorylated biotinylated peptide is formed in situ as a result of mTOR mediated phosphorylation. […] Upon laser light excitation at 680 nm, the donor bead: acceptor bead complex produces a signal that can be measured. […]
# mTOR enzyme inhibition for a given test compound was expressed as an IC50 value.
# T1 sequence (P42345 1362-2549): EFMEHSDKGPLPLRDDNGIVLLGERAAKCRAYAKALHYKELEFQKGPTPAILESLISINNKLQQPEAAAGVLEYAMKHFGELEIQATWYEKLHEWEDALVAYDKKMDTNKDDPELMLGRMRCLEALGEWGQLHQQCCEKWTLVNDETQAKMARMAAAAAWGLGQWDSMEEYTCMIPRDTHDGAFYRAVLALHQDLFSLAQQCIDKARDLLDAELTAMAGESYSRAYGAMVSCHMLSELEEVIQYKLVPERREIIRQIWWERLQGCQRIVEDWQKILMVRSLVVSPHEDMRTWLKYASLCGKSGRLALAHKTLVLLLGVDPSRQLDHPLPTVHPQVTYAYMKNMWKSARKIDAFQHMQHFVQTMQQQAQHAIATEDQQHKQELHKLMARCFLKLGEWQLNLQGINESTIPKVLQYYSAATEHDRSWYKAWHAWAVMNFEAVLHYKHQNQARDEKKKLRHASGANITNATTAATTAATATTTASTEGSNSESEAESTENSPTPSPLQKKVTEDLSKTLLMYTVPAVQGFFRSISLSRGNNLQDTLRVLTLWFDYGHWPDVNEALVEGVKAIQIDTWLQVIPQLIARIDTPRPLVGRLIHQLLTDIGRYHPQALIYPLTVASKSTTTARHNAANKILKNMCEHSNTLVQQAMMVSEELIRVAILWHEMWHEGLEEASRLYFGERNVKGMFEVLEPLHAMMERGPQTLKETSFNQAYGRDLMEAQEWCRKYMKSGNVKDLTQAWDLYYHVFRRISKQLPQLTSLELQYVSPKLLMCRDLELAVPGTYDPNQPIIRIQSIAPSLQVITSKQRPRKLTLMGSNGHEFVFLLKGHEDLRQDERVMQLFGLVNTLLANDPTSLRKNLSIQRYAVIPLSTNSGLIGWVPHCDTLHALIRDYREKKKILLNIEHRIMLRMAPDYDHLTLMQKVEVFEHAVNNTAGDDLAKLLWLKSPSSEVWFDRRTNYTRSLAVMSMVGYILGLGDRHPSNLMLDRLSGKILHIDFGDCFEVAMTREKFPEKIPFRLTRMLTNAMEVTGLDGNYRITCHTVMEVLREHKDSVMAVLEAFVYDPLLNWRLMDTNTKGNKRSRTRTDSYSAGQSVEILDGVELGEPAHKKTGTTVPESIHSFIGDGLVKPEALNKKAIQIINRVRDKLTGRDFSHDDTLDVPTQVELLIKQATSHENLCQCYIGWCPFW
smiles,measurement,value
"C[C@H]1COCCN1c1cc(C2(S(C)(=O)=O)CC2)nc(-c2ccc(NC(=O)Nc3cnn(C)c3)cc2)n1 [Example 2b, 1-[4-[4-[(3S)-3-methylmorpholin-4-yl]-6-(1-methylsulfonylcyclopropyl)pyrimidin-2-yl]phenyl]-3-(1-methylpyrazol-4-yl)urea]",IC50,"59 nM, 5 nM, 23 nM [one passage]"
